Among the data in publication PMC12136788 are binding signal values, retold here.

T1: UNK ZnF1-6 (called full-length) (human, UniProt Q9C0B0 30-357)
T1 sequence: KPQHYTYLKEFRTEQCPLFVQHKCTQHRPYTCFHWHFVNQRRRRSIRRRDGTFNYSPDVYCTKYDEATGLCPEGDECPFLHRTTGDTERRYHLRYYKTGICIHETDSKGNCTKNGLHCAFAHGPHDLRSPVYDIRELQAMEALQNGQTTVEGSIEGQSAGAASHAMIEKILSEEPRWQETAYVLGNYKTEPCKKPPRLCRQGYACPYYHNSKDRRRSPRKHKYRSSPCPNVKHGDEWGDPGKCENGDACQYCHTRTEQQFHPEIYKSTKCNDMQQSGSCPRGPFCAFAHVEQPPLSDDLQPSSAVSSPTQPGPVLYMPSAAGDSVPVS

B1: chrX:103676501:103676735:-|CDS|ENSG00000123562|unk|total|mutant (ssRNA)
RNA: GGGAGUUCUACAGUCCGACGAUCGGAGGUUAAAGUGAAGAUUCCUGAAGAAUUAAAACCAUGGCUUGUUGAGGACUGGGACUCCGUUACCAGGCAGAAGCAGCUGUUUCAACUCCCUGCCAAGAAAAAUGCCGAUGCAAUUCUCAACAGAGGAUUGAGCAUCA
B2: chr13:52461607:52461862:+|CDS|ENSG00000136108|unk|FALSE|bound_elsewhere (ssRNA)
RNA: GGGAGUUCUACAGUCCGACGAUCGUUACAAUCCGGAAAGGGCCUCAUGAAAAAGAACUAUUACAAUCAAAAACAGCUUUAUCUAGUGUCAAAACCAGUUCUUCUCAAGGUAUAAUAAGAAAUAAGACUCUAUCAAGAUCCAUACAACAGAGGAUUGAGCAUCA
B3: chr1:173887777:173887878:+|3pUTR|ENSG00000185278|unk|total|mutant (ssRNA)
RNA: GGGAGUUCUACAGUCCGACGAUCAAAGAGAUUUGGCAGAGGGACAGGUUGUACCUGCACUGGUGAACCAUCUGUGAGAAUGUCCGUCAUGUGCUCCUUUCCUGAGAUUGCUUUGUGGUAUGUGAAAAGGUGGGCCGAAAAGAACAACAGAGGAUUGAGCAUCA
B4: chr15:41696124:41696239:+|CDS|ENSG00000174197|unk|FALSE|unique (ssRNA)
RNA: GGGAGUUCUACAGUCCGACGAUCUGUAGCCUCACCGUUAGACCAGAACGGAAGCUUCAAUGUUGUUAUUAAAGAGGAACCUCUAGAUGAUUAUGACUACGAACUUGGUGAGUGCCCAGAAGGGGUCACUGUGAAACAGGAAGACAACAGAGGAUUGAGCAUCA
B5: chr12:57820040:57820141:-|3pUTR|ENSG00000175215|msi1|FALSE|unique (ssRNA)
RNA: GGGAGUUCUACAGUCCGACGAUCUUUUGCUUAUCAUGUUCCAUUUCGUGCCGCUUUCCCCCUUCAAGAUGCCAUUUGGAGGGUAGGGGAUCUGCUUCCCACUGUGACUGGGCUAUGGGAUUCUGACUACCUUGCUUACAGAUUCAACAGAGGAUUGAGCAUCA
B6: chr15:59095394:59095499:+|3pUTR|ENSG00000157450|unk|FALSE|unique (ssRNA)
RNA: GGGAGUUCUACAGUCCGACGAUCUAAAUACCAUCCUUAAUACUGGGAACAGAAUACAACCCAUAUAAAUCAGAUGCAGGUGGUAGUCACAUCACCAGAGUGAUCAGUAUAAAUUUUCUUGGUGUAUCCUUUUCCUUUCAACACCAACAGAGGAUUGAGCAUCA
B7: chr6:105098072:105098315:-|3pUTR|ENSG00000112276|msi1|total|mutant (ssRNA)
RNA: GGGAGUUCUACAGUCCGACGAUCGUACUUUAAAUUCAUUUAUACAAAUGAAUAAGUGUAUCUUUGUAUAAUGCAUAAAUACACCGAUAAAAACAUGUUUGCUGCCAAAGUUCCCAAUAAGAUGCUUCCUGUGUUUUUUGGCCUCAACAGAGGAUUGAGCAUCA
B8: chr6:44253573:44253761:+|CDS_3pUTR|ENSG00000096384|msi1_unk|FALSE|overlapping (ssRNA)
RNA: GGGAGUUCUACAGUCCGACGAUCUCGCAUGGAAGAAGUCGAUUAGGUUAGGAGUUCAUAGUUGGAAAACUUGUGCCCUUGUAUAGUGUCCCCAUGGGCUCCCACUGCAGCCUCGAGUGCCCCUGUCCCACCUGGCUCCCCCUGCAACAGAGGAUUGAGCAUCA
B9: chr5:171862525:171862626:-|3pUTR|ENSG00000072803|msi1|total|mutant (ssRNA)
RNA: GGGAGUUCUACAGUCCGACGAUCGACAGUGCAUGGAAAGGACGUUGGCAUCCAAUUGGCACUCCUUCUCCCUUAUUCAAUAUCCGGUUUGAUUUGCCCUUCGCCAUUGUUUCCAAAGAUCAAGGAAUGUCAAUAACAUUUUAACAACAGAGGAUUGAGCAUCA
B10: chr8:20179120:20179484:-|CDS|ENSG00000036565|control|control|control (ssRNA)
RNA: GGGAGUUCUACAGUCCGACGAUCCAUCUUCUCCUUCUUCAACAACAACACCGUGGCUGUUGAAGAAAGCGUACCUAGUGGAAUAGCAUGGAUGAAUGACACUGCCAGCACCAUCCCACCUCCAGCCACUGAAGCCAUCUCAGCCAACAGAGGAUUGAGCAUCA
B11: ENSG00000070961:be:win_5301|3pUTR|ENSG00000070961|bound_else_gene|NA|bound_elsewhere_windowed (ssRNA)
RNA: GGGAGUUCUACAGUCCGACGAUCUUGCCUCUGUCUUUACCCUUUAGAAACUGGCAUGUGUUAGGGCCCAGAUUUCACCAGAUACACAAUCCUCAGGCUGACAUAAAGUUUACGAGGACUGCUACUAUAACUGAGAGUGCUGACCAACAGAGGAUUGAGCAUCA
B12: chr20:4701031:4701132:+|3pUTR|ENSG00000171867|msi1|FALSE|unique (ssRNA)
RNA: GGGAGUUCUACAGUCCGACGAUCCAUAGUUUCUGUAAUUGGCUUUUGAAUCAAAGAAUAGGGAGACAAUCUAAAAAAUAUCUUAGGUUGGAGAUGACAGAAAUAUGAUUGAUUUGAAGUGGAAAAAGAAAUUCUGUUAAUGUUCAACAGAGGAUUGAGCAUCA
B13: chr11:35810521:35810622:+|3pUTR|ENSG00000166326|unk|total|mutant (ssRNA)
RNA: GGGAGUUCUACAGUCCGACGAUCCCAGAAACCAUAAGACUCAGGCAGUUCUUGAUUCUGGAGGCCUGCCUGGUAAGAUAAGACCGUAUAAUUUGGAACUGAGAACAUACCAGAAACAGCAGAACGAGGGCCAGAGCAGAAAAACAACAGAGGAUUGAGCAUCA
B14: ENSG00000147394:stop:overlap|stop_codon|ENSG00000147394|stop_codon|NA|stop_codon (ssRNA)
RNA: GGGAGUUCUACAGUCCGACGAUCAUCAGAUCUUCAUUCACCGUGACACCAUUCACUGUGGGAAAUGCUAUGAGAAGCUCUUCUAGCGACCCCCCACCGCCAGGCUGAUCAGAAGCUGAUGACUCGUGGACAAAUUUGGCUGUCCAACAGAGGAUUGAGCAUCA
B15: chr1:220062840:220062943:-|CDS|ENSG00000162813|unk|total|mutant (ssRNA)
RNA: GGGAGUUCUACAGUCCGACGAUCGUUUACACAGGCAGGACCAGAUGCUGUGUUGGGGAGGACAAUCUGGGGAGUUUCCGGUUCCGGCGCCUUUGGGUUUCAGCUGAAAGAAGUCCCUGCUGGGAAACACAUUAUCACAACUACCAACAGAGGAUUGAGCAUCA
B16: chr11:123627604:123627705:+|3pUTR|ENSG00000023171|unk|total|mutant (ssRNA)
RNA: GGGAGUUCUACAGUCCGACGAUCAUUUGGAUCUAUAACUGUACUUUGCCUGGCGCUGUGCGCAAGGUCAGAAAACUUACUGCCCGUACCCCGAAACACACAAGGCUGCCCAGCCAAAUCUUAAUGUAAAGCCGCCCGAGCCAUCAACAGAGGAUUGAGCAUCA
B17: chr5:172042892:172042993:-|3pUTR|ENSG00000072786|msi1|total|mutant (ssRNA)
RNA: GGGAGUUCUACAGUCCGACGAUCGAUUCUCCCGCUUCAACCUUGAGCCGCUGGGACGACAGAUACAUGCUACUGCACCCAGCCCGGUUAAGGUUCUGUAUACUCUGUCUUUCUAAAGCAAUUCCCUGGAAAUUUUCUCAACAUCAACAGAGGAUUGAGCAUCA
B18: chr1:13148904:13149928:-|three_prime_utr|ENSG00000280267|control|control|control (ssRNA)
RNA: GGGAGUUCUACAGUCCGACGAUCCCUGGACCUGAGUGGCAUCAGACUGACCAAUUACAGUCUUGUGCCUCUCCAAAUUCUCCUAGAAAAAGUUGCAGCCACCCUUGAGUACCUGGAUUUAGAUGACUGUGGCAUCAUAGACUCCAACAGAGGAUUGAGCAUCA
B19: chr5:147393259:147393361:-|3pUTR|ENSG00000113657|msi1_unk|FALSE|overlapping (ssRNA)
RNA: GGGAGUUCUACAGUCCGACGAUCAGACCCAACCAUUUCUUCCACCUGCUUGAUUGUGCCAGUGUUUGCUCAGGCCUCUUUCUUAGUGUUGCUUUCAAAUCCUUCUCUUUCCUGGGUUGGGAAGGCCAGGCAGGGACAGAGCAACAACAGAGGAUUGAGCAUCA
B20: ENSG00000197122:stop:overlap|stop_codon|ENSG00000197122|stop_codon|NA|stop_codon (ssRNA)
RNA: GGGAGUUCUACAGUCCGACGAUCCCUUCCUGGAGGACUACUUCACGUCCACCGAGCCCCAGUACCAGCCCGGGGAGAACCUCUAGGCACAGGCGGGCCCAGACCGGCUUCUCGGCUUGGAUCCUGGGCUGGGUGGCCCCUGUCCAACAGAGGAUUGAGCAUCA
B21: ENSG00000124422:stop:overlap|stop_codon|ENSG00000124422|stop_codon|NA|stop_codon (ssRNA)
RNA: GGGAGUUCUACAGUCCGACGAUCACGUCCUGGACAGCGAAGGGUACUUGCUGUUCUAUCACAAACAGUUCCUGGAAUACGAGUAGCCUUAUCUGCAGCUGGUCAGAAAAACAAAGGCAAUGCAUUGGCAAGCCUCACAAAGUGCAACAGAGGAUUGAGCAUCA
B22: chr10:24620413:24620514:-|CDS|ENSG00000107863|msi1|FALSE|bound_elsewhere (ssRNA)
RNA: GGGAGUUCUACAGUCCGACGAUCGUGCUAAUGAAGUAUUGUCCAAGAAGUGCAUCUCAAGGAGCACUGACGUCUCCAUCUGUUAGUUUUAGUAAUCAUAGAACUCGUUCAUGGGAUUAUAUUGAGGGACAGGAUGAAACCUUACAACAGAGGAUUGAGCAUCA

The list shows a part of the results.

The target in this assay is T1, UNK ZnF1-6 (called full-length). In words: nsRBNS (natural sequence RNA bind-n-seq); RBNS binding buffer (assumed for nsRBNS): 25 mM Tris pH 7.5, 150 mM KCl, 3 mM MgCl2, 0.01% Triton X-100, 500 ug/ml BSA, 20 U/ml SUPERase-In, 4 C; UNK is unkempt and MSI1 is Musashi-1; names of the RNAs are library labels; protein concentration not given here; high values mean tight binding.
As for B1, the binding signal stood at 0.809 enrichment R.

B2 gave a binding signal of 0.894 enrichment R.

For the molecule B3, the binding signal was 0.76 enrichment R.

Consider B4, for which the binding signal was found to be 1.02 enrichment R.

With B5, the binding signal came to 0.65 enrichment R.

B6 registered a binding signal of 0.299 enrichment R.

Turning to B7, the binding signal amounted to 0.38 enrichment R.

Regarding B8, the binding signal came out at 1.06 enrichment R.

B9 registered a binding signal of 0.762 enrichment R.

B10: the binding signal is 0.437 enrichment R.

With B11, the binding signal was 0.585 enrichment R.

B12 had a binding signal of 0.645 enrichment R.

B13 came in with a binding signal of 0.753 enrichment R.

Take B14: the binding signal is 0.671 enrichment R.

B15 displayed a binding signal of 0.772 enrichment R.

For the molecule B16, the binding signal is 0.583 enrichment R.

Turning to B17, the binding signal is 0.503 enrichment R.

Take B18: the binding signal turned out to be 0.577 enrichment R.

With B19, the binding signal came to 0.833 enrichment R.

On to B20, for which the binding signal is 0.684 enrichment R.

B21 yielded a binding signal of 0.738 enrichment R.

B22 registered a binding signal of 1.35 enrichment R.
